Measured values: PubChem BioAssay (NCI)
Where “and” joins values, the source holds several entries; their conditions need not be identical. Equal entries are not always repeated.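 Results reflect a 48-hour exposure of cells in 96-well plates to compound at five concentrations. GI50 = concentration required for 50% inhibition of growth. At the TGI there is no net growth.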

Each compound was assayed on NCI-H322M lung (assay: NCI tumour cell line growth inhibition, 48 h).

Structure (SMILES)	TGI	GI50
N#C/C(=C\c1cc(O)ccc1O)C(N)=O	> 100 µM	
O=C1C2c3[nH]c4ccccc4c3C3CCCCCC3C2C(=O)N1c1ccccc1 (stereo unspecified)	> 100 µM	
CS(C)(=O)=Nn1c(=O)n2n(c1=O)C1c3ccccc3C2c2ccccc21	> 100 µM	
CCN(CC)CCC(CNc1ccnc2cc(Cl)ccc12)c1ccccc1 (stereo unspecified)	51.1 µM	12.4 µM
COc1cc(C2SCC(=O)N2c2ccc(NC(C)=O)cc2)cc(OC)c1OC (stereo unspecified)	> 100 µM	
NC1=NC(=O)/C(=C/c2ccc3ncccc3c2)S1	> 25 µM	> 25 µM
CCN(CC)CCN1C(=O)C2C3C(=O)CC(C)(CC3C)C2C1=O (stereo unspecified)	> 100 µM	> 100 µM
CC(C)[Si]1(C(C)C)OCC2OC(n3c(C(=O)c4ccccc4)cc(=O)[nH]c3=O)CC2O[Si](C(C)C)(C(C)C)O1 (stereo unspecified)	22.7 µM	
CCCCCC[C@@H](C)Nc1nc2ccccc2c2occc12	27.7 µM	12.5 µM
Nc1cc(C(F)(F)F)c(-c2cc(N3CCOCC3)nc(N3CCOCC3)n2)cn1		1.13 µM and 2.01 µM
C[C@@H]1CCC2C(C)(C)C(/C=C\C=O)C3(C)OC213 (stereo partly specified)	> 100 µM	
CN(C)CCn1cnc2ncccc2c1=O	> 100 µM	
COc1cc(/C=C/C(=O)/C=C/c2cc3ccc(Cl)cc3n(Cc3ccccc3)c2=O)ccc1O	7.54 µM	2.42 µM
C=C1C(=O)O[C@H]2[C@H]1CC/C(Cn1cc(-c3cccc(Cl)c3)nn1)=C\CC[C@@]1(C)O[C@@H]21	5.58 µM	2.17 µM
COc1cc(C2c3[nH]c4ccccc4c3[C@@H](Nc3ccc(C#N)cc3)[C@H]3COC(=O)N23)cc(OC)c1O (stereo partly specified)	> 4.77 µM	
C[C@H](CS)C(=O)N1c2ccccc2C[C@H]1C(=O)O	> 100 µM	
CC12C(=C(C#N)C(=N)N1c1ccc(Cl)c(Cl)c1)C=C(O)CC2SCCS(=O)(=O)O (stereo unspecified)	> 100 µM	
CCOC(=O)N(C)C(=C(F)F)C(F)(F)F	> 100 µM	
CCN(CC)CCCNc1ccc([N+](=O)[O-])c2nc3ccc(OC)cc3c(N)c12	2.08 µM	
COc1cccc2nc3ccccc3nc12	> 100 µM	
O=C(Nc1ccccc1C(F)(F)F)c1ccc(NC2=C(Cl)C(=O)N(Cc3ccccc3)C2=O)cc1	> 100 µM	31.4 µM
c1ccc(-c2n(Cc3ccc4ccccc4c3)cc[n+]2Cc2ccc3ccccc3c2)cc1	2.82 µM	1.42 µM
Clc1ccc2ncc(-c3cccc(NC4CNC4)n3)n2c1	35.5 µM	3.53 µM
CC1=C[C@@H](C)C[C@]2(C)CC[C@H](O2)[C@]23CC[C@](CO)(C[C@H](O2)[C@@H]2O[C@@](C)(CC2=O)[C@@H](O)[C@H]2CC[C@@]4(CCC[C@@H](O4)[C@H](C)C(=O)O[C@H]4C[C@H]([C@]5(O)OCC[C@H](C)[C@@H]5O)O[C@H]4C=C1)O2)O3	> 10 µM	
CCOc1ccc(OCC)c([P+](c2ccccc2)(c2ccccc2)c2ccccc2)c1	40.7 µM	

Structure (SMILES)	TGI	GI50
COc1ccccc1/C=C/C1=C(C)CCC(c2ccccc2OC)C1C (stereo unspecified)	> 100 µM	0.261 µM
CCCC(C)NC(=O)c1ccc(N(C)Cc2cnc3nc(N)nc(N)c3n2)cc1 (stereo unspecified)	69.6 µM	
Cc1ccc(Cl)cc1NC(=O)c1cc2ccccc2cc1O	3.19 µM	0.323 µM
Cc1cccc(/C=N\NC(=S)N2CCCCC2)n1	> 100 µM	
O=C(Cc1csc2nc(-c3ccc(Cl)cc3)cn12)N/N=C/c1ccccc1O	59.1 µM	1.56 µM
COC(=O)C1C(=O)O[C@@H](c2ccc(OC)c(OC)c2OC)C1C(=O)OC (mixture of isomers)	> 100 µM	
CCc1cc2c(c3c1CCCC3)CC1(Cc3ccc(C(=O)OC)cc3C1)C2 (stereo unspecified)	> 100 µM	
Cc1ccc(OCC2=NC3S/C(=C/c4ccc([N+](=O)[O-])o4)C(=O)N3N2)cc1 (stereo unspecified)	30 µM	
Cc1cc(C)c2c(c1)CC1(Cc3ccc(C)c(C)c3C1=O)C2=O (stereo unspecified)	> 100 µM	
CC(NC1CCCC[C@H]1O)c1ccccc1 (stereo partly specified)	> 100 µM	
O=C(CO[N+](=O)[O-])OC/C=C/c1ccccc1	> 100 µM	
N/C(=N\N=C\c1cc(I)cc(I)c1O)NO	> 100 µM	
CCCCCCNC(=S)N/N=C(\C)c1ccccn1	23.2 µM	
Cc1nc(-n2nc(-c3ccccc3)cc2-c2ccccc2)sc1C(=O)/C=C/c1ccc(Cl)c(Cl)c1	> 100 µM	
CCCCOCOc1ccccc1P1(=O)COc2ccccc2OC1	> 100 µM	
O=C1c2ccccc2C(=O)c2c1ccc1c(=O)n(-c3ccccc3C(F)(F)F)nnc21	7.97 µM	2.58 µM
NC(=O)C(=CNC(=S)Nc1ccc(S(=O)(=O)Nc2ccccn2)cc1)C(N)=O	> 100 µM	
COC(=O)C1(C)CC2C(C)(CCC3(C)C4=CC=C5C(=CC(=O)C(O)=C5C)C4(C)CCC23C)CC1O (stereo unspecified)	7.6 µM	
O/C(=C\c1nc2ccccc2nc1/C=C(\O)c1ccc(F)cc1)c1ccc(F)cc1	> 100 µM	
COc1ccc2nc3cc([N+](=O)[O-])ccc3c(NNc3ccccc3)c2c1	> 100 µM	19.6 µM
O=C(CC(c1ccccc1)C1C(=O)NC(=S)NC1=O)c1ccc([N+](=O)[O-])cc1 (stereo unspecified)	> 100 µM	
Cc1ccc(-c2nc3cc(Cl)c(Cl)cc3nc2C#N)cc1	> 100 µM	> 100 µM
O=[N+]([O-])c1ccc(C2=NOC(c3ccc(Cl)cc3)N2C23CC4CC(CC(C4)C2)C3)cc1 (stereo unspecified)	> 100 µM	
O=C(Cc1ccc([N+](=O)[O-])c([N+](=O)[O-])c1CC(=O)C(=O)Nc1cc(Cl)ccc1Cl)C(=O)Nc1cc(Cl)ccc1Cl	> 100 µM	
COc1cc(C2c3cc4c(cc3OC(NCCc3ccccc3)C2C)OCO4)cc(OC)c1OC (stereo unspecified)	> 100 µM	

Structure (SMILES)	TGI	GI50
Cc1c(-c2ccc(O)cc2)oc(=O)c2ccc(O)cc12	> 100 µM	39.3 µM
CC(=O)OC(C)(C)/C=C/C(=O)[C@](C)(O)[C@H]1[C@H](O)C[C@@]2(C)[C@@H]3CC=C4[C@@H](C=C(O)C(=O)C4(C)C)[C@]3(C)C(=O)C[C@]12C	7.57 µM and 5.65 µM and 6.49 µM	
O=C(/C=C1\N=C(c2ccccc2)N(c2nc3c(Cl)cc(Cl)cc3s2)C1=O)/C=C/c1ccccc1	> 100 µM	
Nc1cc(S(=O)(=O)O)cc2ccc(S(=O)(=O)O)cc12	> 100 µM	
Cc1cc(S(=O)(=O)NC2=NCCN2Cc2ccccc2)c(S)cc1Cl	> 100 µM	
CCOC(=O)c1nc2ccccc2nc1Oc1ccc(C#N)cc1	> 100 µM	
C[N+]1(CCC(=O)c2ccccc2)CCC2CCC(C2)C1 (stereo unspecified)	> 100 µM	
Cc1cc(C)c2c(=O)n(CC(O)CN3CCN(CCOCCO)CC3)sc2n1 (stereo unspecified)	> 100 µM	
Clc1ccc(OCc2nnc3n2N=C(c2ccc(Br)cc2)CS3)cc1	> 100 µM	
CC(C)CC1c2[nH]c3ccccc3c2C[C@H]2C(=O)NC(CCCCNC(=O)OC(C)(C)C)C(=O)N12 (stereo partly specified)	> 100 µM	
CCO/C(O)=C(/C(=N)N1CCCC1)C(=O)Nc1cccc(Cl)c1	> 100 µM	
O=C(/C=C/C(Cl)(Cl)Cl)Nc1ccc(Cl)cc1	31.3 µM	
CC(=O)C1(C)CC(C#N)(C#N)C(C#N)=C1N (stereo unspecified)	> 100 µM	
O=C(Nc1cccc(-n2cc(-c3ccncc3)c(-c3ccc(O)c(Cl)c3)n2)c1)c1cc(C(F)(F)F)cc(C(F)(F)F)c1	> 50 µM	15.1 µM
COc1cccc(C2=C(c3cn(C)c4cc(F)ccc34)C(=O)NC2=O)c1	> 25 µM	> 25 µM
COc1cc(/C=N/c2ccccn2)cc(OC)c1OC	> 100 µM	
CCCCCCCCCCCCCCCCc1c(C(=O)OC)nc(NN)[nH]c1=O	> 50 µM	
COc1ccc(-c2[nH]nc(N)c2-c2cc(OC)c3c(c2)OCO3)cc1	> 100 µM	7.75 µM
COc1ccc(Cn2cc3c(c2)-c2oncc2CC3)cc1OC	> 50 µM	0.196 µM
CCOC(=O)[C@@H]1ON2O[C@H](OC3CCCCC3c3ccccc3)C[C@H]3OC(=O)[C@@H]1C32 (stereo partly specified)	> 100 µM	
COc1ccc(-n2c3c(c4cc(O)ccc42)Cc2ccccc2C3=O)cc1	> 100 µM	
COc1cc(COC(=O)N2CC=CC2C(=O)O)c([N+](=O)[O-])cc1OC (stereo unspecified)	> 100 µM	
Cc1ccc(NC(=O)CSc2nnc(Cc3ccccc3)o2)cc1	> 100 µM	
Cc1ccc(-c2nc(N3CCNCC3)c3oc(-c4ccccc4)nc3n2)cc1	2.99 µM	1.63 µM
OCc1ccc(N2CCc3cc(F)ccc3C2)cc1Cl	12.2 µM	2.18 µM

Structure (SMILES)	TGI	GI50
NC(=O)NNCc1c(-c2ccccc2)no[n+]1[O-]	> 100 µM	
COC(=O)c1cc(NC(=O)c2cc(NC(=O)Cc3c[nH]c4ccccc34)cn2C)cn1C	68.5 µM	
COC(=O)C1=C(OC(=O)/C=C/c2ccc(Cl)cc2)C(C(=O)OC)[C@]2(O)[C@@H](C(=O)OC)[C@H]1C[C@@H](c1ccccc1)[C@@H]2C(=O)OC (stereo partly specified)	> 100 µM	
Cc1ccc(/C=C/c2c(C(=O)/C=C/c3ccc(Cl)cc3)c(C)nc3ccccc23)cc1	2.86 µM	1.49 µM
CN(C)C=NC1CCC(C(C)(C)C)CC1 (stereo unspecified)	58.2 µM	
CC1CCC(=O)C(C(O)CC2CC(=O)N(c3ccccc3)C(=O)C2)C1 (stereo unspecified)	> 100 µM	
O=CNc1ccc(S(=O)(=O)c2ccc(NC=O)cc2)cc1	> 100 µM	
C/C(=N/O)c1ccc2c(c1)/C(=N/O)c1ccccc1-2	62.2 µM	24 µM
CCOc1ccc(/C=C(\Cl)c2ccc(OC)cc2)cc1	> 100 µM	
CCOC(=O)c1nc2ccccc2nc1Nc1ccc(OC)cc1	> 100 µM	
CCOC(=O)c1c(NC(=O)c2ccccc2)sc2c3c(ccc12)OCN(C)C3	3.07 µM	1.59 µM
[N-]=[N+]=Nc1ccc2c(c1)Sc1ccccc1N2CCCCN1CCN(Cc2ccc(C(=O)c3ccc(CSCC(N)C(=O)O)cc3)cc2)CC1 (stereo unspecified)	57.7 µM	
C/C(=N\NC(=S)NC(CCC(=O)O)C(=O)O)c1cnccn1 (stereo unspecified)	> 100 µM	
c1ccc(-c2c3c(nc4c2CC[C@H]4NC2=NCCN2)[C@@H](NC2=NCCN2)CC3)cc1	> 100 µM	
COc1ccc2c(c1)[n+](=O)c(C(=O)C/C(=N/NC(=O)C[N+](C)(C)C)C(=O)Nc1cccc(C)c1C)c(C)n2O	> 100 µM	
Cc1nc(C)c(N2CCN(C(=O)O)CC2)c(=O)[nH]1	> 100 µM	
CN(C)/C=N\c1nncc2[nH]cnc12	> 100 µM	
COC1[C@H](NC(=O)OC(C)(C)C)C(=O)N1Cc1ccccc1 (stereo partly specified)	> 100 µM	
COc1ccc2nc(-c3ccccc3)cc(Nc3cccc(C(C)=O)c3)c2c1	33.9 µM	16.6 µM
COC(=O)n1c(C)c(C=O)c2ccc(OC)cc21	> 100 µM	
NC(=O)CC1(O)C=C(Br)C(=O)C(Br)=C1	53.3 µM	21 µM
CCOc1ccc2c(c1)CN(Cc1ccc(Cl)cc1)CO2	55.7 µM	20 µM
CC/C(=N/O)c1ccc2[nH]c3c(C)cc([N+](=O)[O-])c(C)c3c2c1	> 100 µM	
